Laboratory results from publication PMC4336329 (PLoS ONE, 2015).
Hit rate of the full screen: of about 310,000 compounds, about 14,000 (4.5%) showed an effect of 50% or more. Effects have a minus sign here. The list shows a part of the results.

Biological target: human ether-à-go-go-related gene (hERG) potassium channel (human, UniProt Q12809)
Assay: primary screen, population patch clamp on CHO cells stably expressing hERG
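Note: peak tail current of the secondary pulse compared with the same well before compound.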

human ether-à-go-go-related gene (hERG) potassium channel, sequence (Q12809 whole entry, looked up): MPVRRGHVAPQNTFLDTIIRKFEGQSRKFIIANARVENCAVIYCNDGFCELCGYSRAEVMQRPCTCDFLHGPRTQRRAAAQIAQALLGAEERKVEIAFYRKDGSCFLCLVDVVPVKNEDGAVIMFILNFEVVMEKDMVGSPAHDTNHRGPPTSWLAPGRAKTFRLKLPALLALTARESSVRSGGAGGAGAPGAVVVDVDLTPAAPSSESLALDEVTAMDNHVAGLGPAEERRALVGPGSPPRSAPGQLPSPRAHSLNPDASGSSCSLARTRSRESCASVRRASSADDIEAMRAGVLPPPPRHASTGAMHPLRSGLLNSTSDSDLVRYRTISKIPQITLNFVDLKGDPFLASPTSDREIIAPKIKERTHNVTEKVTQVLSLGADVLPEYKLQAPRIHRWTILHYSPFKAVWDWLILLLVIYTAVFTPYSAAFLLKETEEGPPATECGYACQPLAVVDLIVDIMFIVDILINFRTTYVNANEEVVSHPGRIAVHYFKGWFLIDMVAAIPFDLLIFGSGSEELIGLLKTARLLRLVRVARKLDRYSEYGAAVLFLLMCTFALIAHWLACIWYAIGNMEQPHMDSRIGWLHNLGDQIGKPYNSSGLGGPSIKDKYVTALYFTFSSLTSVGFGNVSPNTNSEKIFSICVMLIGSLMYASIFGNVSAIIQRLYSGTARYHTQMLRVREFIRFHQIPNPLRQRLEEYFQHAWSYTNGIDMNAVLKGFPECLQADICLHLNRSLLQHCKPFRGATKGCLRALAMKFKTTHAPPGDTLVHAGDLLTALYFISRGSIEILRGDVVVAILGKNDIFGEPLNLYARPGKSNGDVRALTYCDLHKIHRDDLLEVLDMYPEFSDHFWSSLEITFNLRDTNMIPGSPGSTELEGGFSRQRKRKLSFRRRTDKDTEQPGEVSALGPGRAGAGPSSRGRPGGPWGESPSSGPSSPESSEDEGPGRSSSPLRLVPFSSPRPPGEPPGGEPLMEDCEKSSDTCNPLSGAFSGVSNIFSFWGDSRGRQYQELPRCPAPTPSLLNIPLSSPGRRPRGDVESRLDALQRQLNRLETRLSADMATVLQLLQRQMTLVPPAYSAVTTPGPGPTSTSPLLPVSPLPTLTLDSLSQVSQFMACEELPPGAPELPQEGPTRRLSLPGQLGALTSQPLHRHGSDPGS

| Compound | hERG current change (%, negative = inhibition) at 10uM [%] |
| --- | --- |
| CCOCC(=O)NCc1ccc2c(c1)OCO2 | -0.263 |
| N#Cc1c(N)c(C(=O)c2ccc(Br)cc2)n2c1CCC2 | -5 |
| CN(CC(=O)Nc1cccc(F)c1)C(=O)CCc1nc2sc3c(c2c(=O)[nH]1)CCCC3 | 1.1 |
| Clc1ccc(CN2CCN(/N=C/c3ccco3)CC2)cc1 | -12.1 |
| CC1=C(C(=O)OCc2ccc3c(c2)OCO3)C(c2ccc(Cl)cc2)NC(=O)N1 (stereo not drawn) | 1.67 |
| COc1ccc(S(=O)(=O)N2CCOCC2)cc1NC(=O)CSc1nnc(C2CC2)n1N | 12.7 |
| Cc1ccc(NC(=O)c2ccccc2O)cc1 | 1.62 |
| O=C(CC(=O)c1cc(Cl)ccc1O)c1ccccc1 | -3.98 |
| Cc1ccc(C(=O)ON=C2CCN(S(=O)(=O)c3ccccc3)CC2)cc1 | -17.7 |
| Cc1ccc(C)c(Cn2nnc3c(=O)[nH]c(C4CCCN(C(=O)c5ccco5)C4)nc32)c1 (stereo not drawn) | -38.3 |
| Nc1nc(SCC(=O)Nc2ccc(C(F)(F)F)cc2)[nH]c(=O)c1NC(=O)c1ccc(F)c(F)c1 | 19.4 |
| COc1ccc(CC(=O)Nc2ccc(S(=O)(=O)N3CCCC3)cc2)c(OC)c1 | -18.6 |
| CCN(CC)CCCNC(=O)C(C)n1nc(C)c2sc3ccccc3c2c1=O (stereo not drawn) | -19.7 |
| CC(=O)Nc1nc2c(s1)C(=O)NCCC2 | -2.05 |
| O=C(NN1CCCCC1)c1cccc(COc2ccc(Cl)cc2)c1 | -7.67 |
| CSc1ncc(Cl)c(C(=O)Nc2cccc(C)c2)n1 | -4.24 |
| Cc1ccc2nc(C3CCCN3Cc3nc(CCC(C)C)no3)[nH]c2c1 (stereo not drawn) | -9.15 |
| CC/C(=N\Nc1ccccc1)c1c(O)n(-c2ccc(OC)cc2)c(=O)[nH]c1=O | 8.4 |
| O=C(COC(=O)c1ccc(S(=O)(=O)N2CCCCC2)cc1)NCc1ccco1 | 10.2 |
| CCCCC(C)n1[nH]c(=O)c2c(C)cc(C)nc21 (stereo not drawn) | -13.9 |

| Compound | hERG current change (%, negative = inhibition) at 10uM [%] |
| --- | --- |
| Nc1ccc(OCCCc2c(N)nc(N)nc2N)cc1 | -4.21 |
| O=C(NC(=S)NCC1CCCO1)c1cccc([N+](=O)[O-])c1 (stereo not drawn) | 2.05 |
| CCc1ccc(C(N)=S)cc1 | 18.9 |
| Cc1ccc(NC(=O)CC2CCCC2)c(Br)c1 | -18.3 |
| CCCSc1nc(O)c(C2OC(=O)c3c2ccc(OC)c3OC)c(=O)n1C (stereo not drawn) | 18.3 |
| O=C(CN1C(=O)NC2(CCCCC2)C1=O)N1CCN(C(=O)c2cccs2)CC1 | 5.71 |
| Cc1cc(NC(=O)CCCC(=O)Nc2ccc(F)cc2)no1 | -3.52 |
| O=C1CCCC(O)=C1N=Nc1ccc(C(=O)O)cc1 | 15.9 |
| Cc1ccccc1CSc1nnc(-c2cnccn2)n1C | 7.84 |
| O=C(CC12CC3CC(CC(C3)C1)C2)NCc1ccco1 | 13.5 |
| COCCNC(=O)C(OC(=O)c1cccs1)c1ccccc1 (stereo not drawn) | 13.8 |
| O=c1c2[nH]c3ccccc3c2ncn1Cc1ccco1 | 22.2 |
| CCOC(=O)c1c(CN(CC)CC)n(C)c2cc(Br)c(O)cc12.Cl | -73.6 |
| COC(=O)c1cccnc1SCc1ccccc1 | -14.9 |
| CCc1nnc(NC(=O)C2CCC2)s1 | 2.37 |
| CCc1ccc(-c2cnc3nc[nH]c(=O)c3n2)cc1 | 17.4 |
| CN(C)c1ccc(C(=O)/C=C/c2ccccc2)cc1 | 8.65 |
| CC(OC(=O)c1ccc(C(C)(C)C)cc1)C(=O)NC1CCCCC1C (stereo not drawn) | 17.1 |
| COC(=O)c1ccccc1NC(=O)CSc1nnnn1CC(=O)O | 16.9 |
| N/C(CCN1CCOCC1)=N/O | 17.9 |

| Compound | hERG current change (%, negative = inhibition) at 10uM [%] |
| --- | --- |
| COc1cc(NC(=O)Nn2cnnc2)cc(OC)c1OC | 16.3 |
| COc1cc(C(=S)N2CCN(c3ccccc3Cl)CC2)cc(O)c1O | -13.4 |
| COC(=O)c1ccc(NS(=O)(=O)c2cc3c4c(c2)CCN4C(=O)CC3)cc1 | -0.521 |
| CN(C(=O)CCS(=O)(=O)c1ccc2c(c1)oc(=O)n2C)C1CCCCC1 | 3.68 |
| Cc1ccc(C)c(C(=O)COC(=O)c2nn(C)c(=O)c3ccccc23)c1 | -25.6 |
| O=C1NCCCC1C(=O)N/N=C/c1cccc(O)c1 (stereo not drawn) | 18.5 |
| CC(=O)c1c(C)[nH]c(C(=O)Nc2ccc(S(=O)(=O)N(C)C)cc2)c1C | 1.65 |
| COc1ccc(C)cc1S(=O)(=O)N(CC(=O)N1CCOCC1)c1cc(C)cc(C)c1 | -77.4 |
| CCOc1ccccc1N(CC(=O)Nc1ccccc1)S(=O)(=O)c1ccccc1 | 15.6 |
| O=S(=O)(NCc1ccc(F)cc1)c1ccc(-n2cccn2)cc1 | -6.52 |
| O=C1NCCCc2c1oc1ccc(O)cc21 | 28.2 |
| O=C1CCC(C(=O)Nc2cc(C(F)(F)F)ccc2-n2cncn2)=NN1 | -4.78 |
| N#Cc1c(N2C(=O)c3ccc(C(=O)O)cc3C2=O)sc2c1CCCC2 | 22 |
| Nc1nc(SCC(=O)N2CCCc3ccccc32)[nH]c(=O)c1-c1ccccc1 | 8.94 |
| CS(=O)(=O)CCSc1ncccc1C(=O)NCc1cccs1 | -23.8 |
| CC(C)n1cc(C(=O)NC2CC(C)(C)Cc3c2cnn3-c2ccccc2)cn1 (stereo not drawn) | 5.72 |
| O=C(CCn1c(=O)oc2ccc(Cl)cc21)NCCCN1CCOCC1 | 17.1 |
| CC1(C)CC(=O)C=C(c2cccc3c2Oc2ccccc2S3)C1 | -1.31 |
| CCOc1ccc(CNc2ccc3c(c2)ncn3C)cc1 | -46.6 |
| N#CCNc1ccc([N+](=O)[O-])cc1C#N | -6.8 |
